Reference: the supplement of paper PMC4967469
A lower IC50 marks a more sensitive line; a fit beyond the top or the lowest dose is shown as a bound at that dose. The AUC spans the tested range (256-fold, ending at the top dose) of the same fit; the more sensitive the line, the further below 1. For part of these data: Where the top dose is marked as inferred, it was calculated from the reported fits.

Assays:
Assay in all cases: Viability of human cancer cell lines after 72 h of drug (GDSC screen)
Dabrafenib = compound: CC(C)(C)c1nc(-c2cccc(NS(=O)(=O)c3c(F)cccc3F)c2F)c(-c2ccnc(N)n2)s1 [Dabrafenib]; details: top dose 10 µM
Protocol: (§1)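 Human cancer cell lines in 384-well plates, medium with 10% serum, drug for 72 h over a 256-fold dose range (nine 2-fold or five 4-fold steps up to the top dose). Adherent lines were fixed and stained with the nucleic acid dye Syto60, suspension lines read with resazurin; signal relative to control wells, capped at 0 and 100%. One two-parameter sigmoid per drug and line, fitted in a mixed model over all curves with the slope shared within a line.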

SN-38 = compound: CCc1c2c(nc3ccc(O)cc13)-c1cc3c(c(=O)n1C2)COC(=O)[C@]3(O)CC [SN-38]; details: top dose 0.05 µM; top dose inferred
Protocol: as §1

Methotrexate = compound: CN(Cc1cnc2nc(N)nc(N)c2n1)c1ccc(C(=O)N[C@@H](CCC(=O)O)C(=O)O)cc1 [Methotrexate]; details: top dose 0.2 µM
Protocol: as §1

Axitinib = compound: CNC(=O)c1ccccc1Sc1ccc2c(/C=C/c3ccccn3)n[nH]c2c1 [Axitinib]; details: top dose 2 µM
Protocol: as §1

Vorinostat = compound: O=C(CCCCCCC(=O)Nc1ccccc1)NO [Vorinostat]; details: top dose 10 µM
Protocol: as §1

Cell Line	AUC (Dabrafenib)	IC50 (Dabrafenib)	AUC (SN-38)	IC50 (SN-38)	AUC (Methotrexate)	IC50 (Methotrexate)	AUC (Axitinib)	IC50 (Axitinib)	AUC (Vorinostat)	IC50 (Vorinostat)
CHP-126 (neuroblastoma, suspension)	0.983	> 10000 nM	0.66	8.83 nM	0.912	> 200 nM	0.868	1900 nM	0.631	1450 nM
CHSA0011 (chondrosarcoma, adherent)	0.827	9840 nM	0.699	14.4 nM	0.978	> 200 nM	0.814	1700 nM	0.917	> 10000 nM
CHSA0108 (chondrosarcoma, adherent)	0.835	8090 nM	0.718	14.5 nM	0.953	> 200 nM	0.931	> 2000 nM	0.627	1480 nM
CL-40 (large intestine, adherent)	0.858	> 10000 nM	0.759	30.4 nM	0.966	> 200 nM	0.976	> 2000 nM	0.92	> 10000 nM
CML-T1 (chronic myeloid leukaemia, suspension)	0.692	1940 nM	0.126	0.281 nM	0.696	39.7 nM	0.561	178 nM	0.499	620 nM
COLO-320-HSR (large intestine, suspension)	0.991	> 10000 nM	0.897	47.6 nM	0.583	20.5 nM	0.951	> 2000 nM	0.529	740 nM
COLO-668 (small cell lung carcinoma, adherent)	0.988	> 10000 nM	0.64	7.62 nM	0.914	> 200 nM	0.98	> 2000 nM	0.805	5030 nM
COLO-678 (large intestine, semi-adherent)	0.955	> 10000 nM	0.893	> 50 nM	0.978	> 200 nM	0.98	> 2000 nM	0.904	> 10000 nM
COLO-679 (melanoma, adherent)	0.145	41.1 nM	0.752	18.4 nM	0.984	> 200 nM	0.985	> 2000 nM	0.83	7370 nM
COLO-680N (oesophagus, adherent)	0.98	> 10000 nM	0.943	> 50 nM	0.975	> 200 nM	0.979	> 2000 nM	0.796	5700 nM
COLO-684 (endometrium, suspension)	0.983	> 10000 nM	0.909	> 50 nM	0.573	20.3 nM	0.953	> 2000 nM	0.827	7140 nM
COLO-783 (melanoma, adherent)	0.225	102 nM	0.858	38.6 nM	0.921	> 200 nM	0.948	> 2000 nM	0.671	1830 nM
COLO-800 (melanoma, adherent)	0.967	> 10000 nM	0.199	0.415 nM	0.793	88.2 nM	0.902	> 2000 nM	0.654	1650 nM
COLO-824 (breast, adherent)	0.985	> 10000 nM	0.894	> 50 nM	0.988	> 200 nM	0.987	> 2000 nM	0.865	9110 nM
COR-L23 (large cell lung carcinoma, adherent)	0.938	> 10000 nM	0.613	6.33 nM	0.783	81.7 nM	0.963	> 2000 nM	0.725	2670 nM
COR-L88 (small cell lung carcinoma, adherent)	0.983	> 10000 nM	0.948	> 50 nM	0.973	> 200 nM	0.967	> 2000 nM	0.592	1180 nM
COR-L95 (small cell lung carcinoma, adherent)	0.984	> 10000 nM	0.94	> 50 nM	0.981	> 200 nM	0.985	> 2000 nM	0.885	> 10000 nM
COR-L279 (small cell lung carcinoma, suspension)	0.969	> 10000 nM	0.28	0.809 nM	0.785	76 nM	0.986	> 2000 nM	0.684	1910 nM
COR-L321 (lung, suspension)	0.984	> 10000 nM	0.881	> 50 nM	0.942	> 200 nM	0.975	> 2000 nM	0.531	761 nM
CP50-MEL-B (melanoma, adherent)	0.079	< 39.1 nM	0.886	> 50 nM	0.986	> 200 nM	0.963	> 2000 nM	0.872	9340 nM
CP66-MEL (melanoma, adherent)	0.948	> 10000 nM	0.861	> 50 nM	0.986	> 200 nM	0.937	> 2000 nM	0.798	5550 nM
CPC-N (small cell lung carcinoma, suspension)	0.956	> 10000 nM	0.932	> 50 nM	0.58	21.2 nM	0.939	> 2000 nM	0.541	816 nM
CRO-AP2 (B-cell lymphoma, suspension)	0.964	> 10000 nM	0.442	2.23 nM	0.466	10.3 nM	0.876	1540 nM	0.402	349 nM
CS1 (bone, adherent)	0.982	> 10000 nM	0.528	3.76 nM	0.93	> 200 nM	0.931	> 2000 nM	0.546	848 nM
CTB-1 (B-cell lymphoma, suspension)	0.95	> 10000 nM	0.756	23 nM	0.503	12.8 nM	0.92	> 2000 nM	0.494	598 nM
CW-2 (large intestine, adherent)	0.988	> 10000 nM	0.842	39.1 nM	0.989	> 200 nM	0.988	> 2000 nM	0.796	5110 nM

Cell Line	AUC (Dabrafenib)	IC50 (Dabrafenib)	AUC (SN-38)	IC50 (SN-38)	AUC (Methotrexate)	IC50 (Methotrexate)	AUC (Axitinib)	IC50 (Axitinib)	AUC (Vorinostat)	IC50 (Vorinostat)
Ca9-22 (head and neck, adherent)	0.957	> 10000 nM	0.468	2.57 nM	0.959	> 200 nM	0.948	> 2000 nM	0.6	1150 nM
Ca-Ski (cervix, adherent)	0.95	> 10000 nM	0.536	3.97 nM	0.94	> 200 nM	0.887	> 2000 nM	0.677	2080 nM
CaR-1 (large intestine, adherent)	0.975	> 10000 nM	0.271	0.492 nM	0.968	> 200 nM	0.951	> 2000 nM	0.716	3540 nM
Caov-4 (ovary, adherent)	0.974	> 10000 nM	0.624	8.06 nM	0.98	> 200 nM	0.908	> 2000 nM	0.841	> 10000 nM
D-247MG (glioma, adherent)	0.938	> 10000 nM	0.804	36.8 nM	0.975	> 200 nM	0.943	> 2000 nM	0.862	> 10000 nM
D-283MED (medulloblastoma, adherent)	0.99	> 10000 nM	0.768	17.2 nM	0.982	> 200 nM	0.953	> 2000 nM	0.507	651 nM
D-336MG (glioma, adherent)	0.974	> 10000 nM	0.805	34.4 nM	0.939	> 200 nM	0.974	> 2000 nM	0.896	> 10000 nM
D-392MG (glioma, adherent)	0.97	> 10000 nM	0.7	14.2 nM	0.835	> 200 nM	0.846	> 2000 nM	0.87	> 10000 nM
D-423MG (glioma, adherent)	0.978	> 10000 nM	0.548	4.36 nM	0.978	> 200 nM	0.914	> 2000 nM	0.539	819 nM
D-502MG (glioma, adherent)	0.837	> 10000 nM	0.545	4.43 nM	0.976	> 200 nM	0.916	> 2000 nM	0.837	> 10000 nM
D-542MG (glioma, adherent)	0.981	> 10000 nM	0.909	> 50 nM	0.984	> 200 nM	0.95	> 2000 nM	0.948	> 10000 nM
DBTRG-05MG (glioma, adherent)	0.36	240 nM	0.545	4.24 nM	0.77	88.8 nM	0.95	> 2000 nM	0.828	7680 nM
DEL (lymphoid neoplasm, suspension)	0.954	> 10000 nM	0.477	2.74 nM	0.665	32.1 nM	0.988	> 2000 nM	0.608	1160 nM
DIFI (large intestine, adherent)	0.962	> 10000 nM	0.916	> 50 nM	0.983	> 200 nM	0.915	> 2000 nM	0.554	883 nM
DJM-1 (skin, adherent)	0.985	> 10000 nM	0.478	2.73 nM	0.988	> 200 nM	0.979	> 2000 nM	0.765	3630 nM
DK-MG (glioma, adherent)	0.945	> 10000 nM	0.843	> 50 nM	0.977	> 200 nM	0.868	> 2000 nM	0.871	> 10000 nM
DMS-53 (small cell lung carcinoma, adherent)	0.96	> 10000 nM	0.623	6.98 nM	0.988	> 200 nM	0.986	> 2000 nM	0.821	6320 nM
DMS-79 (small cell lung carcinoma, suspension)	0.985	> 10000 nM	0.824	36.4 nM	0.894	> 200 nM	0.986	> 2000 nM	0.761	4090 nM
DMS-114 (small cell lung carcinoma, adherent)	0.889	> 10000 nM	0.804	29.5 nM	0.977	> 200 nM	0.88	> 2000 nM	0.774	4530 nM
DOK (head and neck, adherent)	0.85	> 10000 nM	0.705	16.1 nM	0.904	> 200 nM	0.881	> 2000 nM	0.642	1890 nM
DOV13 (ovary, adherent)	0.56	938 nM	0.615	6.81 nM	0.978	> 200 nM	0.929	> 2000 nM	0.725	3040 nM
DSH1 (bladder, adherent)	0.988	> 10000 nM	0.72	12.7 nM	0.91	> 200 nM	0.989	> 2000 nM	0.701	2230 nM
Detroit562 (head and neck, adherent)	0.966	> 10000 nM	0.716	12.4 nM	0.977	> 200 nM	0.964	> 2000 nM	0.777	3860 nM
EC-GI-10 (oesophagus, adherent)	0.939	> 10000 nM	0.673	9.41 nM	0.986	> 200 nM	0.966	> 2000 nM	0.758	3440 nM
ECC10 (stomach, suspension)	0.974	> 10000 nM	0.59	5.59 nM	0.795	97.8 nM	0.905	> 2000 nM	0.505	644 nM
